# Source: PubChem BioAssay AID588855 (National Center for Advancing Translational Sciences (NCATS), 2011)
# The whole screen tested about 410,000 compounds, of which about 5,000 (1.2%) were called active. Inconclusive means that the source gave no clear call. Such entries were picked first, then a sample of the others. Calls come from the whole dose curve; as a rule, active = well fitted inhibition curve with a large enough effect; inconclusive = small, poorly fitted or top-dose-only effect; inactive = no such curve, though single readings can be large or run the other way. Potencies of inconclusive entries are doubtful fits and often do not repeat.
# Test: qHTS for Inhibitors of TGF-b; note: nearly all actives have a fitted effect of over 65% in size
# Settings: HepG2 CAGA-GFP TGF-b/SMAD3 reporter, GFP fluorescence, 18 h, TGF-beta stimulated, 500 pg/mL final; series mostly up to 46.1 µM
# Method in brief: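 Smad-responsive CAGA-GFP expression was quantified in HEPG2 cells exposed to compounds and 500 pg/mL final TGF-beta for 18 h at 37 degrees C; unstimulated wells defined full inhibition.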
# Potency is the fitted concentration of half-maximal effect; tags give direction and shape of the fitted curve.
row,SMILES,Potency
1,COc1cc(OC)c(N2CC34C=CC(O3)C(C(=O)O)C4C2=O)cc1Cl (centres undefined),"inconclusive: 2.82 µM [inhibitor, single point]"
2,Cc1ccc(C2C(/C=C3/SC(=S)NC3=O)=C(c3cccs3)Oc3ccccc32)cc1 (centres undefined),"inconclusive: 17.8 µM [inhibitor, single point]"
3,CN1CCN(C(=O)C2=C[C@@H](c3ccc(Br)cc3)C[C@@H](OCc3ccc(CO)cc3)O2)CC1,inactive
4,COc1ccc(/C=C/C(=O)NC(=S)Nc2ccc(S(=O)(=O)Nc3nccnc3OC)cc2)cc1,inactive
5,C=CCC[C@@H](Cc1ccc(F)cc1)C(=O)OC[C@@H](Cc1c[nH]c2ccccc12)NC(=O)[C@@H](CC=C)CC(=O)NCCO,"inconclusive: 22.4 µM [inhibitor, single point]"
6,Cc1ccc(S(=O)(=O)Nc2cccc(-c3cn4ccsc4n3)c2)cc1,"inconclusive: 35.5 µM [inhibitor, single point]"
7,COCCNc1ccc(-c2nc(-c3cccc(C)c3)no2)cc1[N+](=O)[O-],inactive
8,CN1C(=O)c2ccccc2Sc2ccc(NC(=O)COc3ccc(Cl)cc3)cc21,active: 2.82 µM
9,CC1CCCN(C(=O)Cn2c(=O)n(CC3CCC(C(=O)NC(C)C)CC3)c(=O)c3sccc32)C1 (centres undefined),inactive
10,CCCCCCCOC1(c2ccccc2)OC(=O)c2ccccc21 (centres undefined),"inconclusive: 6.31 µM [inhibitor, full curve]"
11,CCOCCCNC(=O)C(NC(=O)c1ccccc1O)c1ccc(Cl)cc1 (centres undefined),"inconclusive: 0.708 µM [inhibitor, partial curve, poor fit]"
12,Cn1c(=O)c2c(-c3ccccc3)n(-c3cccc(O)c3)cc2n(C)c1=O,inactive
13,Cc1ccc(-c2noc(CSc3nnnn3-c3ccccc3)n2)cc1,"inconclusive: 0.562 µM [inhibitor, full curve, poor fit]"
14,O=C(CSC1CN(C(c2ccccc2)c2ccccc2)C1)N/N=C/c1ccc(Cl)cc1Cl,"inconclusive: 20 µM [inhibitor, single point]"
15,NC(=O)c1ccc(-c2nnc(Nc3ccc(S(N)(=O)=O)cc3)c3ccccc23)cc1,inactive
16,Cc1cccc(CN2C(=O)/C(=C\c3ccc(C(=O)NCCN4CCOCC4)cc3)Sc3ccccc32)c1,"inconclusive: 35.5 µM [inhibitor, single point]"
17,Clc1ccc2[nH]c3c(c2c1)CCc1cn[nH]c1-3,"inconclusive: 20 µM [inhibitor, partial curve, poor fit]"
18,CCS(=O)(=O)Nc1ccc(C2=NN(C(=O)c3ccco3)C(c3ccc(C)cc3)C2)cc1 (centres undefined),"inconclusive: 17.8 µM [inhibitor, partial curve, poor fit]"
19,O=S(=O)(Nc1cccc(CCc2ccccn2)c1)c1ccc2ccccc2c1,inactive
20,CCCN(CC(=O)Nc1ccccc1C)C(=O)c1ccc2ccccc2n1,inactive
21,COc1ccc(N(CC(=O)N2CCN(c3cccc(OC)c3)CC2)S(=O)(=O)c2c(C)noc2C)cc1,"inconclusive: 14.1 µM [inhibitor, partial curve, poor fit]"
22,CCN1C(=O)[C@H]2[C@@H](c3ccc(-c4cccc(Cl)c4)c(OC)c3)N[C@@](Cc3ccccc3)(C(=O)OC)[C@H]2C1=O,"inconclusive: 0.891 µM [inhibitor, full curve]"

row,SMILES,Potency
1,CCOc1ccc(NC(=O)Cn2c(=O)n(Cc3nc(-c4ccccc4)no3)c(=O)c3ccccc32)cc1,"inconclusive: 5.01 µM [inhibitor, partial curve, poor fit]"
2,CC(C)(C)c1ccccc1N=Cc1ccc2ccccc2n1,inactive
3,CC(C)c1cc(C(=O)N/N=C/c2ccoc2)c(O)c(C(C)C)c1,"inconclusive: 11.2 µM [inhibitor, partial curve, poor fit]"
4,CCOC(=O)C1=C(CS(=O)(=O)c2ccc(C)c(C)c2)NC(=O)NC1c1ccccc1OCC (centres undefined),"inconclusive: 15.8 µM [inhibitor, partial curve, poor fit]"
5,CC1(C)Cc2c(C#N)c(NCCO)nc(-c3ccco3)c2CO1,"inconclusive: 6.31 µM [inhibitor, single point]"
6,O=C(COC(=O)c1n[nH]c(=O)c2ccccc12)Nc1ccccc1F,"inconclusive: 10 µM [inhibitor, partial curve, poor fit]"
7,O=C(CSc1ccc2ccccc2c1)NC1CCCc2ccccc21 (centres undefined),"inconclusive: 35.5 µM [inhibitor, partial curve, poor fit]"
8,CCOC(=O)c1[nH]c(C)c(C(=O)N2CCc3ccccc32)c1C,"inconclusive: 7.08 µM [inhibitor, partial curve, poor fit]"
9,CC(C)Cc1ccc(C(C)CC2=CCC(CN(C)C)C2=O)cc1 (centres undefined),"inconclusive: 3.55 µM [inhibitor, single point]"
10,COc1ccc(-c2nc(-c3ccccc3)nc(N3CCN(C)CC3)c2C#N)cc1,inactive
11,CCOC(=O)C1=NNC2C(=O)N(Cc3ccccc3)C(=O)C12 (centres undefined),inactive
12,COc1ccc(NC(=O)CC(C)(C)C)c([N+](=O)[O-])c1,"inconclusive: 3.98 µM [inhibitor, partial curve]"
13,NC(=O)[C@H]1CC2(CC(c3cccc(NC(=O)COc4ccc(Cl)cc4)c3)=NO2)CN1C(=O)Cc1ccc([N+](=O)[O-])cc1 (some centres undefined),"inconclusive: 35.5 µM [inhibitor, single point]"
14,Cc1cc(C)c2cc(CN(CCN3CCCC3)C(=O)Nc3ccc(F)cc3)c(=O)[nH]c2c1,"inconclusive: 35.5 µM [inhibitor, single point]"
15,Cc1c(Br)c([N+](=O)[O-])nn1CC(=O)Nc1ccc(C(C)C)cc1,"inconclusive: 35.5 µM [inhibitor, single point]"
16,Cc1cccc(Nc2nc(-c3c(C)nc4ccccn34)cs2)c1,"inconclusive: 12.6 µM [inhibitor, partial curve]"
17,CCn1cc(C(=O)N2CCN(c3ccccc3)CC2)c(=O)c2cc(S(=O)(=O)N3CCC(C)CC3)ccc21,"inconclusive: 11.2 µM [inhibitor, partial curve]"
18,COc1ccc(C2CC(=O)c3c([nH]c(C(=O)OCCOc4ccccc4)c3C)C2)cc1OC (centres undefined),"inconclusive: 3.16 µM [inhibitor, full curve, poor fit]"
19,COc1cccc(CNC(=O)c2cccn2-c2nnc(N3CCCC3)s2)c1,"inconclusive: 0.562 µM [inhibitor, full curve, poor fit]"
20,CCN1CCN(C(=O)c2cnn(-c3cccc(C)c3)c2C2CCN(C(=O)OC(C)(C)C)CC2)CC1,inactive
21,C=C1C=CS(=O)(=O)N(C(CC(C)C)C(=O)OC)C1 (centres undefined),inactive
22,C=CCn1c(=O)c2ccccc2n2nnc(C(=O)OCC)c12,inactive

row,SMILES,Potency
1,COc1ccc(CNC(=O)c2sc(=O)n(Cc3ccc(C)cc3)c2C)cc1OC,inactive
2,COc1cccc(-c2nc(C#N)c(N3CCN(C(=O)c4ccco4)CC3)o2)c1,"inconclusive: 3.16 µM [inhibitor, partial curve, poor fit]"
3,COc1ccc(/C=N\Nc2ncc(F)c(N3CCOCC3)n2)cc1OC,inactive
4,CN1CCN(CCC(=O)N/N=C/c2ccccn2)CC1,inactive
5,Cc1c(Cl)cccc1NC(=O)NCCOCCn1c(=O)oc2ccccc21,"inconclusive: 7.08 µM [inhibitor, partial curve, poor fit]"
6,CCc1nc2ccc(C(=O)NCCOc3ccc(OC)cc3)cn2c1N(C)Cc1cccs1,"inconclusive: 15.8 µM [inhibitor, partial curve, poor fit]"
7,CCOC(=O)N1CCc2c(sc(NCc3sccc3C)c2C(=O)Nc2ccccc2OCC)C1,"inconclusive: 35.5 µM [inhibitor, single point]"
8,CC1=CC(=O)C(C(C)C)=C/C1=N/OC(=O)c1cccc([N+](=O)[O-])c1,"inconclusive: 35.5 µM [inhibitor, single point]"
9,O=C(NC(=S)Nc1nc2c(ccc3ccccc32)s1)c1cccs1,inactive
10,CCc1ccc2c(c1)NC(=O)C2(C)Cc1ccccc1 (centres undefined),"inconclusive: 3.55 µM [inhibitor, single point]"
11,CCOc1ccc(CCNC(=O)c2ccc3c(c2)N(Cc2cccc(Cl)c2)C(=O)c2ccccc2S3(=O)=O)cc1OCC,"inconclusive: 10 µM [inhibitor, partial curve, poor fit]"
12,Cn1cc([N+](=O)[O-])c(C(=O)Nc2nccs2)n1,"inconclusive: 0.501 µM [inhibitor, full curve, poor fit]"
13,CCOC(=O)c1scc(-c2ccc(C)cc2)c1S(=O)(=O)Nc1ccc(F)c(F)c1,inactive
14,CCN(Cc1ccccc1)C(=O)CCS(=O)(=O)c1ccc2c(c1)oc(=O)n2C,"inconclusive: 35.5 µM [inhibitor, single point]"
15,CCN(CC)S(=O)(=O)c1ccc2oc(SCC(=O)NC3CC3)nc2c1,"inconclusive: 35.5 µM [inhibitor, single point]"
16,Cc1ccc(NC(=O)c2ccc(F)c(S(=O)(=O)N3CCc4ccccc4C3)c2)cc1F,"inconclusive: 3.16 µM [inhibitor, full curve]"
17,CC(C)c1nnc(NC(=O)c2nc(S(=O)(=O)Cc3ccccc3)ncc2Cl)s1,"inconclusive: 20 µM [inhibitor, single point]"
18,COCCCNc1nc2ccccc2nc1NS(=O)(=O)c1cc(Cl)ccc1Cl,inactive
19,COc1ccc(Cl)cc1NC(=O)CSc1cn(CC(=O)N2CCCC2)c2ccccc12,inactive
20,O=C(c1c(F)cccc1F)N(C1CCCCC1)C1CCCCC1,"inconclusive: 35.5 µM [inhibitor, single point]"
